According to PubChem BioAssay (Tox21):
“And” between values parts separate entries of the source, which are not always exact repeats. Identical values can stand only once. The inconclusive results got no clear call from the source; some entries with a clear call stand among them for comparison. Potencies of inconclusive entries are doubtful fits and often do not repeat. The source made the active and inactive calls. Calls come from the whole dose curve; as a rule, active = well fitted activation curve with a large enough effect in the signal ratio in the repeat runs, with a control signal flat (not every such curve was filed as active); inconclusive = weak or mixed curves; inactive = flat fitted curve, though single readings scatter; the % refers to the signal ratio.

Experiment: qHTS assay for small molecule activators of the heat shock response signaling pathway (AID 743210)
Conditions: HeLa HSE-bla reporter, beta-lactamase ratio, 5 h; activation: at 62.6 µM (top of the series) unless noted
Description: U.S. Tox21 Program National Center for Advancing Translational Sciences [NCATS] NIH Chemical Genomics Center [NCGC] U.S. Environmental Protection Agency [EPA] National Institutes of Environmental Health Sciences [NIEHS] National Toxicology Program [NTP] U.S. Food and Drug Administration [FDA] Tox21 Assay Overview: Various chemicals, environmental and physiological stress conditions may lead to the activation of heat shock response/ unfolded protein response (HSR/UPR). There are three heat shock transcription factors (HSFs) (HSF-1, -2, and -4) mediating transcriptional regulation of the human HSR. To identify the compounds that activate HSR signaling, HSE-bla HeLa cell line (Invitrogen, Carlsbad, CA, USA) containing a beta-lactamase reporter gene under the control of the heat shock response elements was used to screen the Tox21 10K compound library.
Tox21 Assay Protocol Summary: The CellSensor HSE-bla HeLa cells (Invitrogen, Carlsbad, CA, USA) were dispensed at 1500 cells/6uL/well into 1536-well black wall/clear bottom plates using a Multidrop combi (Thermo Fisher Scientific, Waltham, MA) dispenser. After the assay plates were incubated at 37 C and 5% CO2 overnight, 23 nL of compounds dissolved in DMSO, positive controls or DMSO only was transferred to the assay plate by a Pintool station (Kalypsys, San Diego, CA). The plates were incubated at 37 C for 5 h. After 1 uL of LiveBLAzerTM B/G FRET substrate was added using a Flying Reagent Dispenser (Beckman Coulter, Indianapolis, IN, USA), the plates were incubated at room temperature for 2.5 h, and fluorescence intensity was measured by an Envision plate reader (PerkinElmer, Shelton, CT).
% is set by controls: 0 for no effect and ±100 for the full control effect; potency is the fitted concentration of half-maximal effect; tags give direction and shape of the fitted curve or compound fluorescence and quenching.

Row | Compound | Potency | activation
1 | O=C1OC(CCN2CCCCC2)OC1(c1ccccc1)c1ccccc1 (stereo not given) | inconclusive: 31.6 µM | –
2 | C=CCN1CC[C@]23CCCC[C@H]2[C@H]1Cc1ccc(O)cc13 | – | inactive: 0.754%
3 | NC(=O)CS(=O)C(c1ccccc1)c1ccccc1 (stereo not given) | – | inactive: 0.0582%
4 | CCC/C(=N\OCC)C1=C(O)CC(CC(C)SCC)CC1=O (stereo not given) | inconclusive: 55.3 µM [activator, single point] | –
5 | CCCSP(=S)(OCC)Oc1ccc(SC)cc1 (stereo not given) | inconclusive: 54.9 µM [activator, single point] | –
6 | CC1CN1P(=O)(N1CC1C)N1CC1C (stereo not given) | – | inactive: -0.483%
7 | BrCCc1ccccc1 | – | inactive: -0.102% [at 81.1 µM]
8 | CCN[C@@H](C)Cc1ccccc1 | – | inactive: -1.76% [at 81.1 µM]
9 | ClC1(Cl)C2(Cl)C3(Cl)C4(Cl)C(Cl)(Cl)C5(Cl)C3(Cl)C1(Cl)C5(Cl)C24Cl (stereo not given) | – | inactive: -1.45%
10 | CCC[CH2][Sn]([Cl])([Cl])[Cl] | inconclusive: 7.76 µM [activator, full curve, poor fit] | –
11 | CNC(=O)Oc1cccc(N=CN(C)C)c1 | – | inconclusive: 3.85%
12 | O=[N+]([O-])c1cccc(CCl)c1 | – | inactive: 0.124% [at 81.1 µM]
13 | CCCCOC(=O)c1ccccc1C(=O)O | – | inactive: -1.46%
14 | N#CC1(N=NC2(C#N)CCCCC2)CCCCC1 | – | inactive: -1.85%
15 | CC(C)[N+](=O)[O-] | – | inactive: -0.803%
16 | c1ccc(Nc2ccc(Nc3ccccc3)cc2)cc1 | inconclusive: 36.6 µM | –
17 | CCCN1CCC[C@@H]2Cc3[nH]ncc3C[C@H]21 | – | inactive: -2.59%
18 | N=C(N)[Se] | – | inactive: -0.734% [at 81.1 µM]
19 | Clc1ccc(C2(Cn3cncn3)CC(Br)CO2)c(Cl)c1 (stereo not given) | – | inactive: -0.287%
20 | CN1CCN(C(=O)O[C@H]2c3nccnc3C(=O)N2c2ccc(Cl)cn2)CC1 | – | inactive: 0.815%

Row | Compound | Potency | activation
21 | Cc1cccc(C)c1NC1=NCCCS1 | – | inactive: -0.151%
22 | CN1C[C@@H](NS(=O)(=O)N(C)C)C[C@@H]2c3cccc4c3c(cn4C)C[C@H]21 | – | inactive: -0.641%
23 | Clc1cc(Cl)c(-c2cc(Cl)c(Cl)cc2Cl)cc1Cl | – | inactive: 0.0173%
24 | CNC(=O)O/N=C/C(C)(C)S(C)(=O)=O | inactive and inconclusive: 58.1 µM [activator] | –
25 | CCCBr | – | inactive: -0.521%
26 | CNC(=O)Oc1c(C(C)(C)C)cc(C)cc1C(C)(C)C | inconclusive: 21.9 µM [activator, single point] | –
27 | Cc1ccc(S(=O)(=O)N[C@@H](CCCCN)C(=O)CCl)cc1 | inconclusive: 33.5 µM [activator, single point] | –
28 | O=C1CN=C(c2ccccc2)c2cc([N+](=O)[O-])ccc2N1 | – | inactive: -2.35%
29 | CC(=O)OCC1=C(C(=O)O)N2C(=O)[C@@H](N)[C@H]2SC1 | – | inactive: -0.808% [at 29.1 µM]
30 | c1ccc2c(c1)CCCC2 | inactive | –
31 | CC1=C(C(=O)Nc2ccccc2)S(=O)(=O)CCO1 | inconclusive: 48.9 µM [rising, partial curve] | –
32 | ClC(Cl)(Cl)Br | inconclusive: 60.9 µM [activator, partial curve, poor fit] | –
33 | ClCOCCl | – | inactive: 1.54% [at 81.1 µM]
34 | O=C(Cl)/C=C/C(=O)Cl | – | inactive: -1.29% [at 81.1 µM]
35 | COc1nc(NC(C)C)nc(NC(C)C)n1 | inactive | –
36 | O=C(O)CCl | inactive | –
37 | CC[N+](=O)[O-] | inactive | –
38 | Oc1ccc2c3c1O[C@H]1[C@@H](O)C=C[C@H]4[C@@H](C2)NCC[C@@]341 | inconclusive: 79.2 µM [activator, partial curve, poor fit] | –
39 | CN1[C@@H]2CC[C@H]1CC(O)C2 (stereo not given in full) | – | inactive: -1.12% [at 81.1 µM]
40 | O=C(Nc1ccccc1)c1ccccc1I | – | inactive: 0.0099%
